Usually Ki stands for a dissociation constant, usually derived from enzyme kinetics or from competition with a known ligand.

Stromelysin, sequence (P08254 100-477): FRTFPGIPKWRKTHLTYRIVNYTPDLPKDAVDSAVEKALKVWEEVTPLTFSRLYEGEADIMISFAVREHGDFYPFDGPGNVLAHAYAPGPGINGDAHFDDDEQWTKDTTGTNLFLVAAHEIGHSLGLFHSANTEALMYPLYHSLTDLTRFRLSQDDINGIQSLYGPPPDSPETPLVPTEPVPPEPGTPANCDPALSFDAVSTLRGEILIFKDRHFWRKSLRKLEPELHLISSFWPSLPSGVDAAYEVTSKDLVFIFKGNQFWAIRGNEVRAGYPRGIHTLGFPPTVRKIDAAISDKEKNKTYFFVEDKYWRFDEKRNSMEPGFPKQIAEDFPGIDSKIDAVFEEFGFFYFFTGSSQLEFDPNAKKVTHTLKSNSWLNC

The test concerns the target Stromelysin (Homo sapiens, UniProt P08254). Put plainly: MMP inhibition, particle concentration fluorescence assay. Conditions: in vitro; fluorescein/biotin substrate; MMP buffer pH 7.5; room temperature. The test is classed as biochemical.
The compound `COC(=O)[C@H](Cc1ccccc1)NC(=O)Nc1nnc(S)s1` [Example 1, N-[[(4,5-Dihydro-5-thioxo-1,3,4-thiadiazol-2-yl)amino]carbonyl]-L-phenylalanine methyl ester] yielded a Ki of 900 nM. As for `COC(=O)[C@@H](Cc1ccccc1)NC(=O)Nc1n[nH]c(=S)s1` [Example 3, N-[[(4,5-Dihydro-5-thioxo-1,3,4-thiadiazol-2-yl)amino]carbonyl]-D-phenylalanine methyl ester], the figure is 2200 nM; as for `O=C(Nc1nnc(S)s1)N[C@@H](Cc1ccccc1)C(=O)NCc1ccccc1` [Example 5, α-[[[(4,5-Dihydro-5-thioxo-1,3,4-thiadiazol-2-yl)amino]carbonyl]-amino]-N-(phenylmethyl)-(S)-benzenepropanamide], 520 nM. Consider `CN(C)C(=O)[C@H](Cc1ccccc1)NC(=O)Nc1nnc(S)s1` [Example 8, α-[[[(4,5-Dihydro-5-thioxo-1,3,4-thiadiazol-2-yl)amino]carbonyl]-amino]-N,N-dimethyl-(S)-benzenepropanamide], for which the affinity, expressed as Ki, was 250 nM. `NC(=O)[C@H](Cc1ccccc1)NC(=O)Nc1nnc(S)s1` [Example 9, α-[[[(4,5-Dihydro-5-thioxo-1,3,4-thiadiazol-2-yl)amino]carbonyl]-amino]-(S)-benzenepropanamide] gave a Ki of 3300 nM. As for `CC(C)NC(=O)[C@H](Cc1ccccc1)NC(=O)Nc1nnc(S)s1` [Example 10, α-[[[(4,5-Dihydro-5-thioxo-1,3,4-thiadiazol-2-yl)amino]-carbonyl]amino]-N-(1-methylethyl)-(S)-benzenepropanamide], the Ki turned out to be 1400 nM. This Ki is about 2.4-fold lower than that of the compound before. As for `O=C(Nc1nnc(S)s1)N[C@@H](Cc1ccccc1)C(=O)O` [Example 12, N-[[(4,5-Dihydro-5-thioxo-1,3,4-thiadiazol-2-yl)amino]carbonyl]-L-phenylalanine], the figure is 3100 nM. The value for `O=C(Nc1nnc(S)s1)N[C@@H](Cc1ccccc1)C(=O)N1CCN(Cc2ccccc2)CC1` [Example 14, (S)-1-[2-[[[(4,5-Dihydro-5-thioxo-1,3,4-thiadiazol-2-yl)amino]-carbonyl]amino]-1-oxo-3-phenylpropyl]-4-(phenylmethyl)-piperazine] was 860 nM; that for `COc1ccc(CNC(=O)[C@H](Cc2ccccc2)NC(=O)Nc2nnc(S)s2)cc1OC` [Example 16, α-[[[(4,5-Dihydro-5-thioxo-1,3,4-thiadiazol-2-yl)amino]carbonyl]amino]-N-[(3,4-dimethoxyphenyl)methyl]-(S)-benzenepropanamide] was 490 nM. As to `COc1ccc(N2CCN(C(=O)[C@H](Cc3ccccc3)NC(=O)Nc3nnc(S)s3)CC2)cc1` [Example 21, (S)-1-[2-[[[(4,5-Dihydro-5-thioxo-1,3,4-thiadiazol-2-yl)amino]carbonyl]amino]-1-oxo-3-phenylpropyl]-4-(4-methoxyphenyl)piperazine], the inhibition constant (Ki) was 1010 nM.

`O=C(Nc1nnc(S)s1)N[C@@H](Cc1ccccc1)C(=O)N1CCN(c2ncccn2)CC1` [Example 22, (S)-1-[2-[[[(4,5-Dihydro-5-thioxo-1,3,4-thiadiazol-2-yl)amino]-carbonyl]amino]-1-oxo-3-phenylpropyl]-4-(2-pyrimidinyl)-piperazine] displayed a Ki of 420 nM.

`O=C(Nc1nnc(S)s1)N[C@@H](Cc1c(F)c(F)c(F)c(F)c1F)C(=O)N1CCN(c2ccccn2)CC1` [Example 23, (S)-1-[2-[[[(4,5-Dihydro-5-thioxo-1,3,4-thiadiazol-2-yl)amino]-carbonyl]amino]-1-oxo-3-(pentafluorophenyl)propyl]-4-(2-pyridinyl)piperazine] yielded an inhibition constant Ki of 10 nM. As for `CNC(=O)[C@H](Cc1ccc(F)cc1)NC(=O)Nc1nnc(S)s1` [Example 26, α-[[[(4,5-Dihydro-5-thioxo-1,3,4-thiadiazol-2-yl)amino]carbonyl]amino]-4-fluoro-N-methyl-(S)-benzenepropanamide], the figure is 100 nM; as for `O=C(Nc1nnc(S)s1)N[C@@H](Cc1ccc(F)cc1)C(=O)N1CCN(c2ccccn2)CC1` [Example 27, (S)-1-[2-[[[(4,5-Dihydro-5-thioxo-1,3,4-thiadiazol-2-yl)amino]-carbonyl]amino]-1-oxo-3-(4-fluorophenyl)propyl]-4-(2-pyridinyl)piperazine], 270 nM. `CNC(=O)[C@H](Cc1ccc(OC)cc1)NC(=O)Nc1nnc(S)s1` [Example 31, α-[[[(4,5-Dihydro-5-thioxo-1,3,4-thiadiazol-2-yl)amino]-carbonyl]amino]-4-methoxy-N-methyl-(S)-benzenepropanamide] had a Ki of 460 nM.

The compound `CNC(=O)[C@H](Cc1ccc([N+](=O)[O-])cc1)NC(=O)Nc1nnc(S)s1` [Example 33, α-[[[(4,5-Dihydro-5-thioxo-1,3,4-thiadiazol-2-yl)amino]carbonyl]amino]-N-methyl-4-nitro-(S)-benzenepropanamide] yielded a Ki of 330 nM. The value for `O=C(Nc1nnc(S)s1)N[C@@H](Cc1ccccc1)C(=O)N1CCOCC1` [Example 36, (S)-4-[2-[[[(4,5-Dihydro-5-thioxo-1,3,4-thiadiazol-2-yl)amino]carbonyl]amino]-1-oxo-3-phenylpropyl]morpholine] was 920 nM; that for `O=C(Nc1nnc(S)s1)N[C@@H](Cc1ccccc1)C(=O)NCC1CCCCC1` [Example 38, N-Cyclohexylmethyl-α-[[[(4,5-Dihydro-5-thioxo-1,3,4-thiadiazol-2-yl)amino]carbonyl]amino]-(S)-benzenepropanamide] was 810 nM. The compound `O=C(Nc1nnc(S)s1)N[C@@H](Cc1ccccc1)C(=O)N1CCCC1` [Example 39, (S)-1-[2-[[[(4,5-Dihydro-5-thioxo-1,3,4-thiadiazol-2-yl)amino]carbonyl]amino]-1-oxo-3-phenylpropyl]pyrrolidine] yielded an inhibition constant Ki of 650 nM. As for `O=C(Nc1nnc(S)s1)N[C@@H](Cc1ccccc1)C(=O)N1CCSCC1` [Example 40, (S)-4-[2-[[[(4,5-Dihydro-5-thioxo-1,3,4-thiadiazol-2-yl)amino]carbonyl]amino]-1-oxo-3-phenylpropyl]-thiomorpholine], the figure is 380 nM; as for `CNC(=O)[C@H](Cc1ccc(O)cc1)NC(=O)Nc1nnc(S)s1` [Example 48, α-[[[(4,5-Dihydro-5-thioxo-1,3,4-thiadiazol-2-yl)amino]carbonyl]amino]-4-hydroxy-N-methyl-(S)-benzenepropanamide], 400 nM.

(Values after patent EP0900211B1 (PHARMACIA & UPJOHN COMPANY, priority 1996, dated 1997).)
